Measurements from PubChem BioAssay (NCATS).
Values joined by “and” are separate entries in the source; they are usually repeats but may differ in a detail not shown here. Identical values can stand only once. The list shows a part of the results. Shown are side measurements of this screen, not its main read-out; they come without a call. Compounds called inactive in the main read-out are mostly missing here. Words in brackets tell the shape of the fitted curve; partial curves, single points and poor fits give uncertain potencies.

Experiment: qHTS Assay for Lipid Storage Modulators (AID 1519)
Conditions: Drosophila S3 cells, BODIPY lipid droplet/cell ratio, laser cytometry, cells loaded with oleic acid
In short: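 Cells seeded at 5,000 per well were treated with compounds over a concentration series and loaded with oleic acid (400 uM, as added). Lipid droplet fluorescence (488 nm excitation, 500-530 nm channel) was read by laser-scanning cytometry and normalized to 20 uM Triacsin C.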

[1] = measured here: cell count channel max response
[2] = measured here: cell number channel AC50
[3] = measured here: lipid (BODIPY) channel AC50
[4] = measured here: lipid channel max response
Tags give direction and shape of the fitted curve.

SMILES	max response [1]	AC50 [2]	AC50 [3]	max response [4]
C[C@@H]1CCN=C(N)S1	-8.93%	0.001 µM [falling, full curve, poor fit]	0.001 µM [falling, full curve, poor fit]	-2.79%
CC(=O)NCCNc1nc(-c2ccccc2C)nc2ccccc12	29.1%	1.58 µM [rising, partial curve]	1.78 µM [rising, partial curve]	33.4%
CCN(CC)C[C@@H]1CCCCN1CC(=O)N1c2ccccc2C(=O)Nc2cccnc21	38.7%	14.1 µM [rising, full curve, poor fit]	17.8 µM [rising, full curve, poor fit]	51.7%
COc1ccc(Oc2ncc3nc(-c4cccc(C#N)c4)c(=O)n(C)c3n2)cc1	11.6%	3.16 µM [rising, partial curve, poor fit]	2.82 µM [rising, partial curve, poor fit]	15.4%
CCCCCC[C@@H]([C@@H](C)O)n1cnc2c(N)ncnc21	52.3% and -35.8%	14.1 µM [rising, partial curve, poor fit]	14.1 µM [rising, partial curve, poor fit]	59.1% and -35.2%
COc1cc(N)c(Cl)cc1C(=O)N[C@H]1CCN(CCCOc2ccc(F)cc2)C[C@@H]1OC	111%	11.2 µM [rising, partial curve, poor fit]	14.1 µM [rising, partial curve, poor fit]	143%
COc1ccc(NC(=O)N2CCC3(CC2)CCN(C(=O)c2ccncc2)CC3)cc1	31%	0.316 µM [rising, full curve, poor fit]	1 µM [rising, partial curve]	44.3%
COCCn1c(=O)c(-c2cc(F)cc(F)c2)nc2cnc(Oc3ccc(OC)cc3)nc21	18.7%	0.0631 µM [rising, full curve, poor fit]	0.0708 µM [rising, full curve]	18.6%
CCNc1ncc2nc(-c3ccccc3)c(=O)n(Cc3ccc(F)cc3)c2n1	14.2%	0.891 µM [rising, partial curve]	0.708 µM [rising, partial curve]	15.1%
CN(C)c1nc(-c2cccc(NS(C)(=O)=O)c2)nc2ccccc12	23.4%	0.178 µM [rising, full curve, poor fit]	0.355 µM [rising, full curve]	23.9%
CC[C@H](C)C(=O)O[C@H]1CCC=C2C=C[C@H](C)[C@H](CC[C@@H]3C[C@H](O)CC(=O)O3)[C@H]21	52.4%	17.8 µM [rising, partial curve, poor fit]	20 µM [rising, partial curve, poor fit]	55.3%
N#CCCn1c(=O)c(-c2cccs2)nc2cnc(Oc3ccccc3)nc21	20.3%	1.12 µM [rising, full curve]	0.794 µM [rising, full curve, poor fit]	4.86%
O=c1c(-c2cccs2)nc2cnc(Oc3ccccc3)nc2n1Cc1cccs1	22.8%	0.2 µM [rising, full curve]	1.78 µM [falling, full curve]	-85.9%
COc1ccc(CNc2nc(-c3cccc(NS(C)(=O)=O)c3)nc3ccccc23)c(OC)c1	23.3%	0.141 µM [rising, full curve, poor fit]	0.141 µM [rising, full curve]	30.7%
O=C(/C=C/c1ccc(O)cc1)c1c(O)cc(O)cc1O	77.1%	31.6 µM [rising, partial curve, poor fit]	31.6 µM [rising, partial curve, poor fit]	102%
COc1ccc(-c2oc3ccccc3c(=O)c2O)cc1	45.5%	15.8 µM [rising, partial curve, poor fit]	17.8 µM [rising, partial curve, poor fit]	64.4%
O=C(Nc1ccccc1)[C@@]12C[C@@H]1/C(=N/O)c1ccccc1O2	86.1%	7.08 µM [rising, partial curve]	7.08 µM [rising, partial curve]	110%
COc1ncc2nc(-c3cn(C)c4ccccc34)c(=O)n(CCc3ccccc3)c2n1	22%	1.78 µM [rising, partial curve, poor fit]	0.708 µM [rising, full curve, poor fit]	29.2%

SMILES	max response [1]	AC50 [2]	AC50 [3]	max response [4]
CNc1nc(-c2ccc(C(=O)N(C)C)cc2)nc2ccccc12	28.7%	0.398 µM [rising, full curve, poor fit]	0.355 µM [rising, full curve, poor fit]	35%
Cc1nc2ccc(NC(=O)Nc3ccnc4cccnc34)cc2o1	74.7%	2 µM [rising, full curve]	1.78 µM [rising, full curve]	92.4%
CCNc1ncc2nc(-c3ccccc3)c(=O)n(CCC#N)c2n1	10.3%	0.398 µM [rising, partial curve]	0.282 µM [rising, partial curve]	15.4%
N#CCCn1c(=O)c(CCc2ccccc2)nc2cnc(OCc3ccccc3)nc21	19.5%	1.41 µM [rising, full curve]	1.41 µM [rising, partial curve, poor fit]	33.3%
O=c1c(-c2cccs2)nc2cncnc2n1Cc1ccc(F)cc1	5.79%	1.26 µM [rising, partial curve, poor fit]	1 µM [rising, partial curve, poor fit]	-1.49%
NC(=O)C(=O)O	33.6%	7.08 µM [falling, partial curve, poor fit]	7.08 µM [falling, partial curve, poor fit]	34.2%
C[C@@H](CCCCC(=O)Nc1ccc(C(F)(F)F)cc1)NCCc1cnc[nH]1	81.6%	31.6 µM [rising, partial curve]	31.6 µM [rising, partial curve]	102%
CS(=O)(=O)Nc1cccc(-c2cncnc2NCc2cccnc2)c1	32.4%	14.1 µM [rising, partial curve, poor fit]	4.47 µM [rising, partial curve]	37.5%
CCCCC(=O)NCCc1c(Cc2ccccc2)[nH]c2ccccc12	63.3%	1.26 µM [rising, full curve]	0.316 µM [rising, full curve, poor fit]	43.9%
CN(C)c1ncc2nc(CCc3ccccc3)c(=O)n(-c3ccccc3)c2n1	19.4%	2.82 µM [rising, partial curve]	2.24 µM [rising, partial curve]	23.6%
c1ccc(Nc2ncncc2-c2ccc3c(c2)OCO3)cc1	38.5%	0.355 µM [rising, full curve]	0.501 µM [rising, full curve]	51.6%
COC(=O)N1CCC2(CCCN(c3ncccn3)C2)CC1	32.4%	0.0224 µM [rising, full curve, poor fit]	0.0398 µM [rising, full curve]	45.2%
OC[C@H]1O[C@@H](OC[C@H]2O[C@@H](O)[C@H](O)[C@@H](O)[C@@H]2O)[C@H](O)[C@@H](O)[C@@H]1O	-29.8%	15.8 µM [rising, single point]	15.8 µM [rising, single point]	-29.2%
O=C(/C=C/c1ccc(O)cc1)c1cccs1	97.2%	15.8 µM [rising, partial curve, poor fit]	15.8 µM [rising, partial curve, poor fit]	115%
COc1ccccc1CNc1cc(-c2ccccc2OC)ncn1	2.79%	1.58 µM [rising, full curve, poor fit]	1.26 µM [rising, full curve]	-1.29%
Cc1ccccc1-c1nc(N2CCN(C)CC2)c2ccccc2n1	48.7%	1.12 µM [rising, full curve, poor fit]	11.2 µM [rising, partial curve, poor fit]	57.2%
c1ccc2c(NCCN3CCOCC3)nc(-c3ccc4c(c3)OCO4)nc2c1	55.2%	0.00794 µM [rising, full curve, poor fit]	0.01 µM [rising, full curve]	60.6%
